# Inconclusive results, whose numbers are uncertain, are shown with a selection of clear calls. A potency beside an inconclusive call is a rough fit, not a confirmed value. Some structures have more than one record in an assay (separate samples or runs), and their calls can disagree. Activity calls are given as the source filed them. Unless noted, calls come from the whole dose curve; as a rule, active = well fitted cell-killing curve with a large enough effect in the repeat runs; inconclusive = weak or mixed curves, or effect the other way; inactive = no such curve, though single readings can be large or run the other way.
# Assays:
# [1] = qHTS assay to identify small molecule antagonists of the farnesoid-X-receptor (FXR) signaling pathway - cell viability counter screen (AID 743221; active = well fitted cell-killing curve with a large enough effect in the repeat runs, not every such curve was filed as active; inconclusive = weak or mixed curves, or effect the other way; inactive = no such curve, though single readings can be large or run the other way; note: nearly all actives have a fitted effect of over 50% in size); settings: FXR-bla HEK293T viability, CellTiter-Glo luminescence, 16 h; activity change, negative = cytotoxicity: at 62.6 µM (top of the series) unless noted
# Procedure, shortened: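 Cytotoxicity counter screen run in the FXR-bla reporter wells: HEK 293T cells exposed to compound with 50 uM (final) chenodeoxycholic acid for 16 h, 37 C, then viability measured by CellTiter-Glo luminescence after 30 min, room temperature.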
# [2] = target: Vitamin D3 receptor (Homo sapiens) (UniProt P11473); experiment: qHTS assay to identify small molecule antagonists of the vitamin D receptor (VDR) signaling pathway (AID 743223; active = well fitted inhibition curve with a large enough effect in the signal ratio in the repeat runs, not every such curve was filed as active; inconclusive = weak or mixed curves, or effect the other way; inactive = no such curve, though single readings can be large or run the other way; the % refers to the signal ratio); settings: VDR-UAS-bla HEK293T, beta-lactamase FRET ratio, 16 h; activity change, negative = inhibition: at 61 µM (top of the series) unless noted
# Chain of UniProt P11473 (P11473 whole entry, looked up): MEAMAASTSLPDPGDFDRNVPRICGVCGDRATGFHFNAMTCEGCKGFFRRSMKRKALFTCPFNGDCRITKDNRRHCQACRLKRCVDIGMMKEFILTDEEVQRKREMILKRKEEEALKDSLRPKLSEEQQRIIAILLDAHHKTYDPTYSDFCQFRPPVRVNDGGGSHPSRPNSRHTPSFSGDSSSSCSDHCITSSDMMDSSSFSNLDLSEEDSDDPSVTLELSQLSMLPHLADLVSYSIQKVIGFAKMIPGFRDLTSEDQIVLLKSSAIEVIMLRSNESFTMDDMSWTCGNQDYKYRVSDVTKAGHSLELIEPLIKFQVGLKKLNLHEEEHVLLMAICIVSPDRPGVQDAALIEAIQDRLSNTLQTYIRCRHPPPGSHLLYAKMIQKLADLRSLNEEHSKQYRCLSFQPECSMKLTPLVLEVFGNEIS
# Procedure, shortened: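 Antagonist mode: compound added to VDR-bla cells alongside agonist 1alpha,25-dihydroxyvitamin D3 (3 nM final), incubation 16 h at 37C. Read-out is LiveBLAzer FRET fluorescence, 2 h at room temperature.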
# [3] = qHTS assay to identify small molecule agonists of the NFkB signaling pathway (AID 1159509; active = well fitted curve in the direction sought with a large enough effect in the signal ratio in the repeat runs, not every such curve was filed as active; inconclusive = weak or mixed curves, or a change in a side signal; inactive = no such curve, though single readings can be large or run the other way; the % refers to the signal ratio); settings: NFkB-bla ME-180 cells, beta-lactamase FRET ratio, 5 h; activation: at 61 µM (top of the series) unless noted
# Procedure, shortened: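 ME-180 NFkB-bla, 2,000 cells/well, overnight plating; cpd pinned in DMSO, 5 h 37 C; B/G FRET substrate 1.5 h RT; ex 405, em 460/530 nm.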
# [4] = qHTS assay to identify small molecule agonists of the endoplasmic reticulum stress response signaling pathway (AID 1159516; active = well fitted activation curve with a large enough effect in the signal ratio in the repeat runs, not every such curve was filed as active; inconclusive = weak or mixed curves, or effect the other way; the % refers to the signal ratio); settings: ESRE-bla HeLa, ER stress beta-lactamase reporter, 5 h; activation: at 61 µM (top of the series) unless noted
# Procedure, shortened: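 Read-out is beta-lactamase cleavage of a FRET substrate (405 nm excitation; 460 and 530 nm emissions) in ESRE-bla HeLa cells after a 5 hr compound exposure at 37 C. Substrate incubation ran 2 hr at room temperature.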
# [5] = qHTS assay to identify small molecule agonists of the vitamin D receptor (VDR) signaling pathway - cell viability counter screen (AID 743224); note: nearly all actives have a fitted effect of over 50% in size
# Procedure, shortened: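 Luminescence from CellTiter-Glo, read after 30 min at room temperature, reports viability of VDR-bla cells treated with compounds for 16 h at 37C in the wells used for the beta-lactamase FRET read.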
# [6] = target: Vitamin D3 receptor (Homo sapiens) (UniProt P11473); experiment: qHTS assay to identify small molecule agonists of the vitamin D receptor (VDR) signaling pathway (AID 743222; calls by dose curve); settings: HEK293T VDR-UAS-bla, beta-lactamase FRET ratio, 16 h; activation: at 63.5 µM (top of the series) unless noted
# Procedure, shortened: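 VDR-bla cells, 2,000/well; 4 h preincubation 37C; cpd (DMSO) 16 h; LiveBLAzer B/G substrate 2 h RT; fluorescence intensity read.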
# [7] = target: Bile acid receptor (Homo sapiens) (UniProt Q96RI1); experiment: qHTS assay to identify small molecule agonists of the farnesoid-X-receptor (FXR) signaling pathway (AID 743220; active = well fitted activation curve with a large enough effect in the signal ratio in the repeat runs, not every such curve was filed as active; inconclusive = weak or mixed curves, or effect the other way; the % refers to the signal ratio); settings: HEK293T FXR-UAS-bla, beta-lactamase FRET ratio, 16 h; activation: at 62.6 µM (top of the series) unless noted
# Chain of UniProt Q96RI1 (Q96RI1 whole entry, looked up): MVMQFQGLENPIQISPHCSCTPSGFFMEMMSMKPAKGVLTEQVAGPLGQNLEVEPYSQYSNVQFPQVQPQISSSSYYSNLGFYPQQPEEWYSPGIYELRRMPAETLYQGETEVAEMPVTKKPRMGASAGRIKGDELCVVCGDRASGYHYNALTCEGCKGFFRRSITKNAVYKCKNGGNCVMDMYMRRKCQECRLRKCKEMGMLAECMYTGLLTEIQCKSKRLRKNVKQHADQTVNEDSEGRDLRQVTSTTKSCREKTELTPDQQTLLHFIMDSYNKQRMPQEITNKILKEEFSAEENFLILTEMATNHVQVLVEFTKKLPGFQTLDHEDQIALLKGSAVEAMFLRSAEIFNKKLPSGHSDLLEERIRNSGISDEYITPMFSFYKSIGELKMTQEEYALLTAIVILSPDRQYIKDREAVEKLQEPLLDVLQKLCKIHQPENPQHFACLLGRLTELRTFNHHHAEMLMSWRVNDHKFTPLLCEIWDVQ
# Procedure, shortened: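 Beta-lactamase reporter under UAS control in GeneBLAzer FXR HEK 293T cells (5000/well) measured with LiveBLAzer FRET substrate after 2 h at room temperature. Compound exposure lasted 16 h at 37C.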
# [8] = qHTS assay to identify small molecule antagonists of the vitamin D receptor (VDR) signaling pathway - cell viability counter screen (AID 743225); settings: VDR-bla HEK293T viability, CellTiter-Glo luminescence, 16 h; viability change, negative = cytotoxic: at 61 µM (top of the series); note: nearly all actives have a fitted effect of over 50% in size
# Procedure, shortened: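 Cytotoxicity counter screen read by CellTiter-Glo luminescence (30 min, room temperature) in the same wells as the VDR-bla antagonist readout. HEK 293T VDR-UAS-bla cells had 16 h at 37C with compound and 3 nM (final) 1-alpha,25-dihydroxyvitamin D3, then 2 h with FRET substrate.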
# [9] = qHTS assay to identify small molecule agonists of the farnesoid-X-receptor (FXR) signaling pathway - cell viability counter screen (AID 743218); settings: FXR-bla HEK293T viability, CellTiter-Glo luminescence, 16 h; viability change, negative = cytotoxic: at 62.6 µM (top of the series) unless noted; note: nearly all actives have a fitted effect of over 45% in size
# Procedure, shortened: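 HEK 293T FXR-bla cells; 5 h pre-incubation, 16 h compound exposure at 37 C; LiveBLAzer substrate 2 h RT, then CellTiter-Glo 30 min RT, luminescence.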
# % is set by controls: 0 for no effect and ±100 for the full control effect; potency is the fitted concentration of half-maximal effect; tags give direction and shape of the fitted curve or compound fluorescence and quenching.
smiles,measurement,setting,value
CCC(C)(C)C(=O)OC1=C(c2ccc(Cl)cc2Cl)C(=O)OC12CCCCC2,Potency,[1],inactive
same,"activity change, negative = inhibition",[2],inconclusive: -22.9%
same,Potency,[3],"inconclusive: 61.6 µM [falling, single point]"
same,Potency,[4],"inconclusive: 13.8 µM [fluorescent, partial curve]"
FC(F)C(F)(F)OCC(Cn1cncn1)c1ccc(Cl)cc1Cl (stereo not given),Potency,[1],"inconclusive: 54.6 µM [falling, partial curve, poor fit]"
same,Potency,[2],inactive
same,Potency,[5],"inconclusive: 54.6 µM [cytotoxic, single point]"
same,Potency,[3],"inconclusive: 61.3 µM [falling, single point]"
same,Potency,[4],inactive
O=C(N[C@H]1N=C(c2ccccc2F)c2cccc3c2N(CC3)C1=O)c1cc2ccccc2[nH]1,Potency,[6],inactive
same,Potency,[5],inactive
same,Potency,[3],inconclusive: 26.8 µM
same,Potency,[4],inconclusive: 26.8 µM
CCCCOCN(C(=O)CCl)c1c(CC)cccc1CC,activation,[7],inconclusive: 5.42%
same,Potency,[1],"inconclusive: 61.6 µM [falling, single point]"
same,activation,[6],inconclusive: -35.8%
same,"activity change, negative = inhibition",[2],inconclusive: 16.7%
same,Potency,[5],active: 49 µM
same,Potency,[3],inconclusive: 0.347 µM
same,activation,[4],inconclusive: -14.4%
CCCCCCC1CCOC1=O (stereo not given),"activity change, negative = inhibition",[2],inconclusive: 22.3%
same,Potency,[3],inactive
same,Potency,[4],inactive
C=COC(C)=O,"activity change, negative = inhibition",[2],inconclusive: -2.29% [at 78.8 µM]
same,Potency,[3],inactive
same,Potency,[4],"inconclusive: 56.8 µM [activator, single point]"
ClC=C(Cl)Cl,Potency,[7],inactive
same,Potency,[8],inactive
same,Potency,[3],inactive
same,Potency,[4],inconclusive: 0.0012 µM
COP(=S)(OC)Oc1ccc([N+](=O)[O-])cc1,Potency,[2],"inconclusive: 21.9 µM [activator, single point]"
same,"activity change, negative = inhibition",[2],inconclusive: 2.54%
same,Potency,[3],"inconclusive: 24.5 µM [falling, partial curve]"
same,Potency,[4],"inconclusive: 34.7 µM [falling, partial curve, poor fit]"
CC(C)=CCOc1c2occc2cc2ccc(=O)oc12,"activity change, negative = inhibition",[2],inconclusive: 7.86%
same,Potency,[3],inactive
same,Potency,[4],"inconclusive: 0.477 µM [rising, full curve, poor fit]"
C=CC(=O)OCCCCOC(=O)C=C,Potency,[7],"inconclusive: 0.155 µM [fluorescent, full curve, poor fit]"
same,Potency,[1],"inconclusive: 61.6 µM [falling, single point]"
same,Potency,[6],inconclusive: 61.6 µM [single point]
same,Potency,[2],inconclusive: 54.9 µM
same,Potency,[3],"inconclusive: 49 µM [falling, partial curve]"
same,Potency,[4],inconclusive: 12.3 µM
CC(C)[C@@H](Nc1ccc(C(F)(F)F)cc1Cl)C(=O)OC(C#N)c1cccc(Oc2ccccc2)c1 (stereo not given in full),"activity change, negative = inhibition",[2],inconclusive: -3.98%
same,Potency,[3],"inconclusive: 42 µM [falling, partial curve]"
same,Potency,[4],"inconclusive: 47.2 µM [cytotoxic, partial curve]"
CC1(C)C(/C=C(\Cl)C(F)(F)F)C1C(=O)OC(C#N)c1cccc(Oc2ccccc2)c1 (stereo not given),Potency,[7],inactive
same,Potency,[6],inactive
same,Potency,[8],"inconclusive: 7.89 µM [cytotoxic, partial curve]"
same,Potency,[3],"inconclusive: 35.2 µM [falling, partial curve]"
same,Potency,[4],"inconclusive: 22.2 µM [falling, partial curve, poor fit]"
CC(C)=CC1C(C(=O)OCc2coc(Cc3ccccc3)c2)C1(C)C (stereo not given),Potency,[7],inactive
same,Potency,[1],"inconclusive: 43.6 µM [falling, partial curve, poor fit]"
same,activation,[6],inconclusive: -25.4%
same,"activity change, negative = inhibition",[2],inconclusive: 17.5%
same,Potency,[3],"inconclusive: 61.8 µM [falling, single point]"
same,Potency,[4],inactive
CCOC(=O)[C@]1(c2ccccc2)Oc2ccccc2[C@@H]1N,Potency,[7],"inconclusive: 8.71 µM [rising, partial curve, poor fit]"
same,Potency,[2],"inconclusive: 38.9 µM [rising, partial curve, poor fit]"
same,"viability change, negative = cytotoxic",[8],inconclusive: -38.7% [cytotoxic]
same,Potency,[3],inactive
same,activation,[4],inconclusive: 9.06%
O=C(Cc1ccccc1)OCCc1ccccc1,"activity change, negative = inhibition",[2],inconclusive: 27.5%
same,Potency,[3],"inconclusive: 0.49 µM [falling, partial curve, poor fit]"
same,Potency,[4],inactive
CCOc1ccc(C(C)(C)COCc2cccc(Oc3ccccc3)c2)cc1,"activity change, negative = inhibition",[2],inconclusive: -4.62%
same,Potency,[3],inactive
same,Potency,[4],"inconclusive: 12.3 µM [falling, single point]"
c1csc(-c2ccc(-c3cccs3)s2)c1,Potency,[7],inconclusive: 27.5 µM [activator]
same,Potency,[6],active: 24.5 µM
same,Potency,[3],inconclusive: 54.9 µM [fluorescent]
same,Potency,[4],active: 49 µM
Cc1ccc2cc3c(ccc4ccccc43)c3c2c1CC3,Potency,[7],inconclusive: 27.6 µM [activator]
same,Potency,[3],"inconclusive: 24.6 µM [fluorescent, partial curve, poor fit]"
same,Potency,[4],inconclusive: 27.6 µM [fluorescent]
c1ccc2cc3c(cc2c1)-c1cccc2cccc-3c12,Potency,[7],"inconclusive: 9.63 µM [fluorescent, full curve]"
same,Potency,[6],"inconclusive: 6.08 µM [fluorescent, full curve]"
same,Potency,[2],"inconclusive: 3.84 µM [fluorescent, full curve]"
same,Potency,[8],inactive
same,Potency,[3],"inconclusive: 27.2 µM [fluorescent, partial curve]"
same,Potency,[4],"inconclusive: 60.8 µM [fluorescent, partial curve]"
Oc1cc(Cl)c(Cl)c(Cl)c1,Potency,[9],"inconclusive: 23.3 µM [cytotoxic, single point]"
same,Potency,[8],active: 41.4 µM
same,Potency,[3],"inconclusive: 58.5 µM [falling, single point]"
same,Potency,[4],"inconclusive: 36.9 µM [falling, partial curve]"
CC(C)[C@H](C(=O)OC(C#N)c1cccc(Oc2ccccc2)c1)c1ccc(OC(F)F)cc1 (stereo not given in full),"activity change, negative = inhibition",[2],inconclusive: -19.4%
same,Potency,[3],"inconclusive: 19.5 µM [falling, partial curve]"
same,Potency,[4],inconclusive: 38.9 µM [partial curve]
CCOP(=O)(NC(C)C)Oc1ccc(SC)c(C)c1 (stereo not given),Potency,[7],"inconclusive: 0.138 µM [rising, full curve, poor fit]"
same,Potency,[2],"inconclusive: 11 µM [activator, full curve, poor fit]"
same,Potency,[8],"inconclusive: 38.9 µM [cytotoxic, partial curve, poor fit]"
same,Potency,[3],"inconclusive: 0.0062 µM [rising, full curve, poor fit]"
same,Potency,[4],"inconclusive: 0.275 µM [rising, full curve, poor fit]"
CC1(C)[C@H](C(=O)O[C@H](C#N)c2cccc(Oc3ccccc3)c2)[C@@H]1/C=C(\Cl)C(F)(F)F,Potency,[1],"inconclusive: 4.04 µM [falling, full curve, poor fit]"
same,activation,[6],inconclusive: 3.13%
same,"activity change, negative = inhibition",[2],inconclusive: -36.6%
same,Potency,[5],"inconclusive: 12.8 µM [cytotoxic, partial curve]"
same,Potency,[8],"inconclusive: 40.4 µM [cytotoxic, partial curve, poor fit]"
same,Potency,[3],"inconclusive: 18.1 µM [falling, partial curve, poor fit]"
same,Potency,[4],inconclusive: 16.1 µM
O=P(Oc1ccccc1)(Oc1ccccc1)Oc1ccccc1,Potency,[2],inactive
same,Potency,[3],"inconclusive: 21.8 µM [falling, partial curve, poor fit]"
same,activation,[4],inconclusive: 2.96%
CCOP(=S)(OCC)OC(Cl)C(Cl)(Cl)Cl (stereo not given),Potency,[1],inactive
same,"activity change, negative = inhibition",[2],inconclusive: 11.2%
same,Potency,[3],"inconclusive: 61.6 µM [falling, single point]"
same,Potency,[4],"inconclusive: 69.2 µM [cytotoxic, partial curve]"
C=CCN1C[C@H](C)N([C@H](c2ccc(C(=O)N(CC)CC)cc2)c2cccc(OC)c2)C[C@H]1C,Potency,[7],"inconclusive: 21.1 µM [activator, partial curve]"
same,Potency,[6],inactive
same,Potency,[2],inactive
same,Potency,[3],"inconclusive: 30.1 µM [rising, partial curve, poor fit]"
same,Potency,[4],inactive
CCC(=O)O[C@H]1CC[C@H]2[C@@H]3CCC4=CC(=O)CC[C@]4(C)[C@H]3CC[C@]12C,Potency,[1],"inconclusive: 54.9 µM [falling, single point]"
same,Potency,[2],"inconclusive: 19.5 µM [rising, full curve]"
same,"activity change, negative = inhibition",[2],inconclusive: 3.38%
same,Potency,[5],active: 12.3 µM
same,Potency,[8],active: 43.6 µM
same,activation,[3],inconclusive: 6.18%
same,Potency,[4],inconclusive: 49 µM [cytotoxic]
Clc1cc2c(cc1Cl)Oc1cc(Cl)c(Cl)cc1O2,Potency,[7],"inconclusive: 0.213 µM [activator, single point]"
same,activation,[3],inactive: -0.0516% [at 0.281 µM]
CCCCCCCc1ccc(O)cc1,Potency,[9],"inconclusive: 2.19 µM [cytotoxic, full curve, poor fit]"
same,"activity change, negative = inhibition",[2],inconclusive: -39.7%
same,Potency,[5],"inconclusive: 34.7 µM [cytotoxic, partial curve]"
same,Potency,[3],"inconclusive: 38.9 µM [falling, partial curve]"
CCOP(=S)(OCC)Oc1cc(C)nc(C(C)C)n1,Potency,[9],active: 49 µM
same,"viability change, negative = cytotoxic",[9],inconclusive: -4.77%
same,Potency,[3],inactive
CN(C)c1ccc(N)cc1,Potency,[9],inactive
same,"activity change, negative = inhibition",[2],inconclusive: -49.4%
same,Potency,[8],"inconclusive: 47.8 µM [cytotoxic, partial curve]"
same,Potency,[3],inconclusive: 60.2 µM
CC1(C)[C@H](/C=C2\CCSC2=O)[C@@H]1C(=O)OCc1coc(Cc2ccccc2)c1,Potency,[8],"inconclusive: 61.6 µM [cytotoxic, single point]"
same,Potency,[3],"inconclusive: 54.9 µM [falling, partial curve]"
same,Potency,[4],inconclusive: 54.9 µM [single point]

# Reference: PubChem BioAssay (Tox21)
